# The other results are listed elsewhere or left out.
# Columns and labels:
# Assay in all cases: glycan array binding signal (z-score within array); higher = stronger binding
# Conditions in all cases: glycan notation: IUPAC condensed, linker removed
# [1] = molecular target: Fuc(a1-3)GlcNAc
# Outline: (§1)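 Glycan array data came from 3228 arrays in the Consortium for Functional Glycomics database, and only arrays with an available protein sequence were kept. Glycan names were put into IUPAC-condensed notation, and columns mapping to the same glycan were averaged. The binding signal is a within-array Z-score, averaged across arrays of one protein sequence run at different concentrations or buffers and across linkers. A negative Z-score can be read as non-binding.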
# [2] = molecular target: Fuc(a1-3)[Gal(b1-4)]Glc6S
# Outline: as §1
# [3] = molecular target: Fuc(a1-3)[Gal(b1-4)]GlcNAc
# Outline: as §1
# [4] = molecular target: Fuc(a1-3)[Gal(b1-4)]GlcNAc(b1-2)Man
# Outline: as §1
# [5] = molecular target: Fuc(a1-3)[Gal(b1-4)]GlcNAc(b1-2)Man(a1-3)[Fuc(a1-3)[Gal(b1-4)]GlcNAc(b1-2)Man(a1-6)]Man(b1-4)GlcNAc(b1-4)GlcNAc
# Outline: as §1
# [6] = molecular target: Fuc(a1-3)[Gal(b1-4)]GlcNAc(b1-2)Man(a1-3)[Fuc(a1-3)[Gal(b1-4)]GlcNAc(b1-2)Man(a1-6)]Man(b1-4)GlcNAc(b1-4)[Fuc(a1-6)]GlcNAc
# Outline: as §1
# [7] = molecular target: Fuc(a1-3)[Gal(b1-4)]GlcNAc(b1-3)Gal(b1-3)[Fuc(a1-4)]GlcNAc
# Outline: as §1
# [8] = molecular target: Fuc(a1-3)[Gal(b1-4)]GlcNAc(b1-3)Gal(b1-4)[Fuc(a1-3)]GlcNAc
# Outline: as §1
# [9] = molecular target: Fuc(a1-3)[Gal(b1-4)]GlcNAc(b1-3)Gal(b1-4)[Fuc(a1-3)]GlcNAc(b1-3)Gal(b1-4)[Fuc(a1-3)]GlcNAc
# Outline: as §1
# [10] = molecular target: Fuc(a1-3)[Gal(b1-4)]GlcNAc(b1-3)GalNAc
# Outline: as §1
# [11] = molecular target: Fuc(a1-3)[Gal(b1-4)]GlcNAc(b1-6)GalNAc
# Outline: as §1
# [12] = molecular target: Fuc(a1-3)[Gal(b1-4)]GlcNAc(b1-6)[Gal(b1-3)GlcNAc(b1-3)]Gal(b1-4)Glc
# Outline: as §1
# [13] = molecular target: Fuc(a1-3)[Gal(b1-4)]GlcNAc6S
# Outline: as §1
# [14] = molecular target: Fuc(a1-3)[Gal3S(b1-4)]Glc
# Outline: as §1
# [15] = molecular target: Fuc(a1-3)[Gal3S(b1-4)]GlcNAc
# Outline: as §1
# [16] = molecular target: Fuc(a1-3)[Gal3S(b1-4)]GlcNAc6S
# Outline: as §1
# [17] = molecular target: Fuc(a1-3)[GalNAc(b1-4)]GlcNAc
# Outline: as §1
# [18] = molecular target: Fuc(a1-3)[GalNAc(b1-4)]GlcNAc6S
# Outline: as §1
# [19] = molecular target: Fuc(a1-4)GlcNAc
# Outline: as §1
# [20] = molecular target: Fuc(b1-3)GlcNAc
# Outline: as §1
# [21] = molecular target: Gal(a1-2)Gal
# Outline: as §1
# [22] = molecular target: Gal(a1-3)Gal
# Outline: as §1
# [23] = molecular target: Gal(a1-3)Gal(b1-3)GlcNAc
# Outline: as §1
# [24] = molecular target: Gal(a1-3)Gal(b1-3)GlcNAc(b1-2)Man
# Outline: as §1
# [25] = molecular target: Gal(a1-3)Gal(b1-3)GlcNAc(b1-2)Man(a1-3)[Gal(a1-3)Gal(b1-3)GlcNAc(b1-2)Man(a1-6)]Man(b1-4)GlcNAc(b1-4)GlcNAc
# Outline: as §1
# [26] = molecular target: Gal(a1-3)Gal(b1-3)GlcNAc(b1-3)GalNAc
# Outline: as §1
# [27] = molecular target: Gal(a1-3)Gal(b1-3)GlcNAc(b1-6)GalNAc
# Outline: as §1
# [28] = molecular target: Gal(a1-3)Gal(b1-3)[Fuc(a1-4)]GlcNAc(b1-2)Man(a1-3)[Gal(a1-3)Gal(b1-3)[Fuc(a1-4)]GlcNAc(b1-2)Man(a1-6)]Man(b1-4)GlcNAc(b1-4)GlcNAc
# Outline: as §1
# [29] = molecular target: Gal(a1-3)Gal(b1-4)Glc
# Outline: as §1
# [30] = molecular target: Gal(a1-3)Gal(b1-4)GlcNAc
# Outline: as §1
# [31] = molecular target: Gal(a1-3)Gal(b1-4)GlcNAc(b1-2)Man
# Outline: as §1
# [32] = molecular target: Gal(a1-3)Gal(b1-4)GlcNAc(b1-2)Man(a1-3)[Gal(a1-3)Gal(b1-4)GlcNAc(b1-2)Man(a1-6)]Man(b1-4)GlcNAc(b1-4)GlcNAc
# Outline: as §1
# [33] = molecular target: Gal(a1-3)Gal(b1-4)GlcNAc(b1-3)GalNAc
# Outline: as §1
# [34] = molecular target: Gal(a1-3)Gal(b1-4)GlcNAc(b1-6)GalNAc
# Outline: as §1
# [35] = molecular target: Gal(a1-3)Gal(b1-4)[Fuc(a1-3)]GlcNAc
# Outline: as §1
# [36] = molecular target: Gal(a1-3)Gal(b1-4)[Fuc(a1-3)]GlcNAc(b1-2)Man(a1-3)[Gal(a1-3)Gal(b1-4)[Fuc(a1-3)]GlcNAc(b1-2)Man(a1-6)]Man(b1-4)GlcNAc(b1-4)GlcNAc
# Outline: as §1
# [37] = molecular target: Gal(a1-3)GalNAc
# Outline: as §1
binder,measurement,setting,value
Cohesin-hDECTIN-1 (Homo sapiens) (protein) LDITSHHHHHHDDLDAVRIKVDTVNAKPGDTVRIPVRFSGIPSKGIANCDFVYSYDPNVLEIIEIEPGDIIVDPNPDKSFDTAVYPDRKIIVFLFAEDSGTGAYAITKDGVFATIVAKVKEGAPNGLSVIKFVEVGGFANNDLVEQKTQFFDGGVNVGDTTEPATPTTPVTTPTTTDDLDAASSSPCPPNWIIYEKSCYLFSMSLNSWDGSKRQCWQLGSNLLKIDSSNELGFIVKQVSSQPDNSFWIGLSRPQTEVPWLWEDGSTFSSNLFQIRTTATQENPSPNCVWIHVSVIYDQLCSVPSYSICEKKFM,glycan array binding signal (z-score),[1],-0.147
same,glycan array binding signal (z-score),[2],-0.379
same,glycan array binding signal (z-score),[3],-0.311
same,glycan array binding signal (z-score),[4],-0.245
same,glycan array binding signal (z-score),[5],-0.301
same,glycan array binding signal (z-score),[6],-0.51
same,glycan array binding signal (z-score),[7],-0.336
same,glycan array binding signal (z-score),[8],-0.432
same,glycan array binding signal (z-score),[9],-0.212
same,glycan array binding signal (z-score),[10],-0.18
same,glycan array binding signal (z-score),[11],0.362
same,glycan array binding signal (z-score),[12],-0.475
same,glycan array binding signal (z-score),[13],-0.678
same,glycan array binding signal (z-score),[14],-0.276
same,glycan array binding signal (z-score),[15],-0.146
same,glycan array binding signal (z-score),[16],-0.218
same,glycan array binding signal (z-score),[17],2.03
same,glycan array binding signal (z-score),[18],1.03
same,glycan array binding signal (z-score),[19],-0.25
same,glycan array binding signal (z-score),[20],-0.288
same,glycan array binding signal (z-score),[21],-0.199
same,glycan array binding signal (z-score),[22],-0.419
same,glycan array binding signal (z-score),[23],4.04
same,glycan array binding signal (z-score),[24],-0.585
same,glycan array binding signal (z-score),[25],0.993
same,glycan array binding signal (z-score),[26],-0.327
same,glycan array binding signal (z-score),[27],7.58
same,glycan array binding signal (z-score),[28],-0.29
same,glycan array binding signal (z-score),[29],-0.437
same,glycan array binding signal (z-score),[30],-0.267
same,glycan array binding signal (z-score),[31],0.129
same,glycan array binding signal (z-score),[32],0.386
same,glycan array binding signal (z-score),[33],-0.373
same,glycan array binding signal (z-score),[34],5.86
same,glycan array binding signal (z-score),[35],-0.334
same,glycan array binding signal (z-score),[36],0.021
same,glycan array binding signal (z-score),[37],-0.531
